In PubChem BioAssay AID1240 (Sanford-Burnham Center for Chemical Genomics, 2008):
Hit rate of the full screen: of about 50,000 compounds, about 800 (1.6%) showed an effect of 50% or more. The list shows a part of the results.

The compounds below were run against Bcl-2-like protein 10 (Homo sapiens) (UniProt Q9HD36) (assay: TR3 peptide-Bcl-B binding displacers, biochemical primary FP assay, phenotype converters (AID 1240;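 also: 0% = Bcl-B with tracer peptide and DMSO and 100% = tracer peptide lacking Bcl-B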)). Conditions: GST-Bcl-B / FITC-TR3 peptide fluorescence polarization; stronger effect = higher value; compound at 3.75 mg/L.
UniProt Q9HD36, sequence (Q9HD36 whole entry, looked up): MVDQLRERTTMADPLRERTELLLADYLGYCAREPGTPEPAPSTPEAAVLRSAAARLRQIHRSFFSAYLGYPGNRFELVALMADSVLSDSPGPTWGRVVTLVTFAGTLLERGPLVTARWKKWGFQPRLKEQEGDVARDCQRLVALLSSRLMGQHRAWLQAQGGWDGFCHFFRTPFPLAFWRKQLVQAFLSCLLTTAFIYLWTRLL
For `O=C(N=C1SCC(=O)N1c1ccccc1)c1ccco1`, the displacement was -7.3%.
`O=C(NC(=S)Nc1cccnc1)c1ccc(Cl)cc1` gave a displacement of 1.1%.
`O=C(CCCN1C(=O)c2cccc3cccc(c23)C1=O)Nc1ccccn1` showed a displacement of -1.3%.
Compound `O=C(O)c1cc(NC(=O)c2ccc(Br)cc2)cc(C(=O)O)c1` has a displacement of 5.7%.
`O=S(=O)(Nc1ccc(Cl)c(C(F)(F)F)c1)c1ccccc1` showed a displacement of 11.6%.
`COc1ccc(NC(=O)Nc2cccc3cccnc23)cc1` gave a displacement of -0.9%.
Compound `C=CCc1cc(/C=C2\C(=O)NC(=O)N(c3ccc(C)cc3)C2=O)cc(OCC)c1O` has a displacement of 1.7%.
Work on `CC1=C(C(=O)Nc2ccc(C)cc2)C(c2ccc(Cl)cc2Cl)NC(=S)N1` (centres undefined) yielded a displacement of -0.6%.
`COc1ccc(-c2cc(-c3ccc(C)cc3)nc(N/N=C/c3cccc(OC)c3O)n2)cc1OC` gave a displacement of 3.3%.
`COc1ccc(NC(=O)c2cccc3c2-c2ccc(I)cc2C3)cc1` was tested, and the displacement was 1.1%.
`Cc1ccc(C(=O)Nc2sc3c(c2C(N)=O)CCCCCC3)cc1` showed a displacement of 0.4%.
Compound `O=C(NN1C(=O)/C(=C/c2ccc(Br)cc2)SC1=S)c1cccc(Cl)c1` has a displacement of 6.3%.
With `COc1ccc(/C=C/C(=O)Nc2ncc(Cc3cccc(C(F)(F)F)c3)s2)cc1` the displacement was 20.8%.
With `COc1ccc(/C=C2/C(=O)NN(c3ccccc3)C2=O)c(OC)c1` the displacement was 2.1%.
Compound `COc1cccc(NC(=O)CC(C)=O)c1` has a displacement of -2.4%.
`COc1cc(/C=N\NC(=O)c2ccc(Br)cc2)cc(I)c1O` was tested, and the displacement was 6.8%.
For `Cc1ccccc1NS(=O)(=O)c1ccc(NC(=O)c2ccc(C(F)(F)F)cc2)cc1`, the displacement was -0.5%.
In the case of `Cc1ccc(-c2cc(-c3ccccc3)nc(N3CCCC3)n2)cc1`, the displacement is reported as 5.5%.
For `COc1ccc(NC(=O)Nc2nnc(CCc3ccccc3)s2)cc1`, the displacement was 6.9%.
`O=c1c2ccccc2c(-c2ccccc2)nn1Cc1cccc(Br)c1` showed a displacement of -4.4%.
Compound `CSc1ccc(S(=O)(=O)N(CC(=O)Nc2ccc(C)cc2C)c2ccc(C)cc2)cc1` has a displacement of 13.6%.
Work on `O=S(=O)(Nc1cccc(-c2nc3ccccc3s2)c1)c1ccccc1` yielded a displacement of 9.6%.
`C/C(=N\NC(=O)c1cc(C23CC4CC(CC(C4)C2)C3)[nH]n1)c1cccs1` was tested, and the displacement was -5.8%.
Compound `Cc1c(C(=O)Nc2ccc(Cl)cc2Cl)cccc1[N+](=O)[O-]` has a displacement of 10.6%.
For `O=C1N=c2ccccc2=C1c1sc(=Nc2ccccc2)n(-c2ccccc2)c1O`, the displacement was -2.5%.
`Cc1ccc(-c2nc3cc(NC(=O)c4cccc([N+](=O)[O-])c4C)ccc3o2)cc1` was tested, and the displacement was -3.3%.
In the case of `C/C(=C\C(=O)c1ccccc1)Nc1ccccc1O`, the displacement is reported as 7.5%.
With `CCOc1ccccc1-c1nc(=S)[nH][nH]1` the displacement was 4.5%.
`CCOc1ccc(N2C(=O)NC(=O)C(=S(C)C)C2=O)cc1` gave a displacement of 0.5%.
`COC(=O)c1ccccc1NC(=O)COc1cccc(C)c1C` gave a displacement of 5.6%.
Compound `CCC(C)C(=O)N1c2ccccc2C(N(C(=O)COc2ccccc2)c2ccccc2)CC1C` (centres undefined) has a displacement of -3.8%.
Compound `Cn1c2c(c3cc(F)ccc31)CCCC2=O` has a displacement of 8.3%.
`O=C(Nc1c(Cl)cccc1Cl)C1CCCC1` gave a displacement of -9.7%.
`O=C(COc1ccc(Cl)cc1Br)N1CCN(c2ccccc2)CC1` was tested, and the displacement was -11.4%.
`Cc1cccc(-c2noc(-c3ccco3)n2)c1` showed a displacement of 5.5%.
Work on `CCOc1cccc(N2C(=O)/C(=C/c3cc(Cl)c(O)c(OC)c3)C(=O)NC2=S)c1` yielded a displacement of -9.2%.
In the case of `COc1ccc(C(CC(=O)c2ccc(C)cc2)Nc2ccc(I)cc2)cc1OC` (centres undefined), the displacement is reported as -7%.
Compound `O=C1CS/C(=C/C(=O)c2ccccc2)N1` has a displacement of 3.8%.
`O=C(/C=C/c1ccccc1)NC(=S)Nc1ccccc1O` gave a displacement of 10%.
`O=C(NCCCn1ccnc1)c1ccc(Cl)cc1` was tested, and the displacement was -15.9%.
With `O=S(=O)(Nc1ccc(F)cc1)c1ccc2c(c1)Cc1cc(S(=O)(=O)Nc3ccc(F)cc3)ccc1-2` the displacement was 7.9%.
Work on `CCCCOc1cccc(C(=O)Nc2ccc(NC(=O)c3ccco3)c(OC)c2)c1` yielded a displacement of 4.5%.
In the case of `CCc1cccc(CC)c1NC(=O)c1cc(-c2cccs2)nc2ccccc12`, the displacement is reported as -3.7%.
Work on `COc1ccccc1CC(=O)Nc1cc([N+](=O)[O-])ccc1C` yielded a displacement of 19.3%.
`O=C1C2CCCCC2C(=O)N1CN1CCCCC1` (centres undefined) was tested, and the displacement was 0.1%.
`COc1ccccc1NC(=O)Cc1ccccc1[N+](=O)[O-]` was tested, and the displacement was -10.1%.
Work on `COc1ccccc1C(=O)N1CCN(C=O)CC1` yielded a displacement of -14.1%.
Compound `O=C(/C=C/c1ccc2c(c1)OCO2)Nc1ccncc1` has a displacement of 3.9%.
With `CN1CCN(C(=O)c2nn3c(C(F)(F)F)cc(-c4ccccc4)nc3c2Cl)CC1` the displacement was 0%.
Work on `CCc1cc(C)cc(OCCOc2cccc(C=C3C(=O)NC(=S)NC3=O)c2)c1` yielded a displacement of 3%.
`Cc1ccc(N2C(=O)C3C4C=CC(C)(O4)C3C2=O)cc1Br` (centres undefined) gave a displacement of 7.6%.
`C=CCOCC(O)CS(=O)Cc1ccccc1` (centres undefined) was tested, and the displacement was -8%.
`Cc1ccc(C(=O)Nc2ccc(Cl)cn2)cc1[N+](=O)[O-]` gave a displacement of 9.6%.
Compound `CN(C)c1ccc(/C=C2/C(=O)NN(c3ccc(Cl)cc3)C2=O)cc1Br` has a displacement of 1.9%.
Work on `O=S(=O)(Nc1ccc(O)c(-c2c(O)ccc3ccccc23)c1)c1ccccc1` yielded a displacement of 4.5%.
`O=C(Nc1cccc(I)c1)c1ccc(-c2ccccc2)cc1` gave a displacement of 21.8%.
`CC(=O)N1CCC(=O)N1c1ccccc1` showed a displacement of 11.5%.
For `Cc1cc(=O)oc2c1ccc1oc(/C(=N\O)c3ccccc3)c(-c3ccccc3)c12`, the displacement was -48.1%.
With `O=C(c1ccc(I)cc1)N1CCc2ccccc21` the displacement was -0.9%.
With `CN(C)/C=C1\Cc2ccccc2NC1=C(C#N)C#N` the displacement was -27.8%.
`C=CCOc1ccc(Cl)cc1/C=C1/SC(=S)NC1=O` was tested, and the displacement was -2.6%.
`O=C1c2ccccc2C(=O)N1c1ccc2nc(SCc3ccc(F)cc3)sc2c1` showed a displacement of 6.6%.
In the case of `O=C(O)c1cccc(N2C(=O)C3C4C=CC(C4=C(c4ccccc4)c4ccccc4)C3C2=O)c1` (centres undefined), the displacement is reported as 7.6%.
`O=C(Nc1ccc2c3c(cccc13)CC2)c1ccc(Br)o1` showed a displacement of 5.4%.
Compound `CC1(C)CC(NC(=S)Nc2ccc([N+](=O)[O-])cc2)CC(C)(C)N1` has a displacement of 10.3%.
`O=C(NC1C2CC3CC(C2)CC1C3)C(c1ccccc1)c1ccccc1` (centres undefined) was tested, and the displacement was -7.8%.
`COc1cc(C2CC(=O)NC(SCC(N)=O)=C2C#N)cc(Br)c1O` (centres undefined) showed a displacement of -27.9%.
In the case of `CC1=C(C(=O)Nc2ccc(C)cc2)C(c2ccc(F)cc2)NC(=S)N1` (centres undefined), the displacement is reported as -4.5%.
Compound `Cc1cc(C=C2C(=O)NC(=O)NC2=O)c(C)n1-c1ccc(Cl)cc1` has a displacement of 106%.
Compound `COc1ccc(CCNC(=O)COc2cccc3ccccc23)cc1` has a displacement of 4.4%.
`Cc1ccccc1C(=O)Nc1sc2c(c1C(=O)Nc1cccc3ccccc13)CCC2` was tested, and the displacement was -2.8%.
`C(=N\c1nc2ccccc2n1CCN1CCCCC1)/c1ccc2c(c1)OCO2` showed a displacement of 7.1%.
With `CCCOc1cccc(C(=O)Nc2cccc(OC)c2)c1` the displacement was 11.2%.
`OCn1ncn(-c2ccccc2)c1=S` gave a displacement of -7.8%.
With `O=C1c2ccccc2C(=O)N1c1ccc(S(=O)(=O)N2CCOCC2)cc1` the displacement was 11.8%.
`CCOC1(c2ccccc2)c2ccccc2Oc2ccccc21` gave a displacement of -1.1%.
`COc1cc(OC)c([N+](=O)[O-])cc1/C=C1/C(=O)NC(=S)N(c2cccc(Br)c2)C1=O` gave a displacement of 5.9%.
For `O=C(Cn1cc(/C=C2/C(=O)NC(=O)N(c3cccc(Cl)c3)C2=O)c2ccccc21)Nc1ccccc1`, the displacement was 94.7%.
With `O=C(COc1ccccc1Cl)Nc1cccc(NC(=O)c2ccccc2)c1` the displacement was -0.2%.
For `COc1cc(/C=C2\C(=O)NC(=O)N(c3cc(C)cc(C)c3)C2=O)c(Br)cc1O`, the displacement was -5.9%.
Work on `N#CC1=C(N=Cc2ccccc2O)CCC1` yielded a displacement of -2.5%.
In the case of `Cc1c(-c2ccccc2)n[nH]c1C(=O)N/N=C/c1cccc([N+](=O)[O-])c1`, the displacement is reported as -10.6%.
With `Oc1ccccc1N=Cc1sc2ccccc2c1O` the displacement was 29.8%.
`COc1ccc(C(=O)N/C(=C\c2ccc(-c3cccc([N+](=O)[O-])c3)o2)C(=O)NCCc2ccccc2)cc1` showed a displacement of 8.8%.
With `C/C(=N\N=C1\NC(=O)C(CC(=O)NCc2ccccc2)S1)c1ccco1` (centres undefined) the displacement was 18.7%.
For `C=CCNC(=O)c1c(NC(=O)c2ccccc2C)sc2c1CCCCC2`, the displacement was -1.7%.
In the case of `N#CC1=C(N)NC(SCC(=O)c2ccc(Cl)cc2)=C(C#N)C12CCCCC2`, the displacement is reported as 0.7%.
For `CC1(C)c2ccccc2N(CCO)C12C=Cc1cc([N+](=O)[O-])ccc1O2` (centres undefined), the displacement was 6.1%.
`CC(O)c1cccc(NC(=O)c2cnn3c2NC(c2ccco2)CC3C(F)(F)F)c1` (centres undefined) was tested, and the displacement was 1.3%.
In the case of `CCOC(=O)C1C(=O)NC(SC)=C(C#N)C1c1ccccc1[N+](=O)[O-]` (centres undefined), the displacement is reported as -1.5%.
`COc1ccc(C(=O)N/C(=C/c2ccc(Br)cc2)c2nc3ccccc3[nH]2)cc1` was tested, and the displacement was 5.7%.
Compound `O=C(CC1SC(=Nc2ccccc2)N(c2ccccc2)C1=O)Nc1ccccc1` (centres undefined) has a displacement of 8.4%.
For `O=C(Nc1ccc2c(c1)oc1ccccc12)c1ccc([N+](=O)[O-])cc1`, the displacement was 0.5%.
Work on `Cc1cc([N+](=O)[O-])c(-c2ccc(/C=N/n3cnnc3)o2)cc1Cl` yielded a displacement of 1.9%.
Compound `Cc1ccc(S(=O)(=O)Oc2ccc(Br)cc2/C=C2\SC(N)=NC2=O)cc1` has a displacement of -0.6%.
Work on `Cc1cc(C)n2nc(-c3cccc(Br)c3)cc2n1` yielded a displacement of 1.9%.
With `O=CNC(Cc1ccc(O)c([N+](=O)[O-])c1)C(=O)O` (centres undefined) the displacement was 2.3%.
For `O=C(c1ccccc1)N1N=C(c2ccc([N+](=O)[O-])cc2)CC1(O)C(F)(F)F` (centres undefined), the displacement was -2.2%.
Work on `CCOC(=O)c1ccc(NC2SC(=O)N(c3ccccc3)C2=O)cc1` (centres undefined) yielded a displacement of 3.8%.
`O=C(N=Nc1c(O)n(CN2CCOCC2)c2ccc(Br)cc12)c1ccncc1` gave a displacement of -0.4%.
For `CC(=O)N(CCc1ccc(S(N)(=O)=O)cc1)C1CC(=O)N(c2ccccc2)C1=O` (centres undefined), the displacement was 5.4%.
`COc1cccc(/C=C2/C(=O)NN(c3ccc(C)c(C)c3)C2=O)c1` gave a displacement of 15.5%.
Work on `CC(=O)c1c(C)nc(C)nc1NC(=O)Cc1ccccc1` yielded a displacement of 4.6%.
Compound `CC1C(=O)NN=C1C(=O)N/N=C/c1cccc(O)c1` (centres undefined) has a displacement of -10.8%.
For `CCC(Oc1ccccc1)C(=O)NC(C)C` (centres undefined), the displacement was -4.3%.
`O=C(CSc1nc2ccc(Br)cc2c(=O)n1-c1ccccc1)NCCOc1ccccc1` showed a displacement of 8.6%.
Work on `COC(=O)C1=C(C)NC(C)=C(C(=O)OC)C1c1ccc(OC)cc1` yielded a displacement of -6.7%.
Compound `Cc1cccc(N2C(=O)c3ccc(C(=O)O)cc3C2=O)c1` has a displacement of 1.3%.
Work on `O=C1CCCC2=C1C(c1ccc(O)cc1)Nc1ccc(C(=O)c3ccccc3)cc1N2` (centres undefined) yielded a displacement of -1.7%.
